Reference: publication PMC4336329 (PLoS ONE, 2015)
In all, about 310,000 compounds went through this assay and about 2,200 (0.71%) showed an effect of 50% or more. The effect is printed as a negative number. The list shows a part of the results.

The molecules below were run against human ether-à-go-go-related gene (hERG) potassium channel (human, UniProt Q12809) (assay: primary screen, population patch clamp on CHO cells stably expressing hERG).
human ether-à-go-go-related gene (hERG) potassium channel, sequence (Q12809 whole entry, looked up): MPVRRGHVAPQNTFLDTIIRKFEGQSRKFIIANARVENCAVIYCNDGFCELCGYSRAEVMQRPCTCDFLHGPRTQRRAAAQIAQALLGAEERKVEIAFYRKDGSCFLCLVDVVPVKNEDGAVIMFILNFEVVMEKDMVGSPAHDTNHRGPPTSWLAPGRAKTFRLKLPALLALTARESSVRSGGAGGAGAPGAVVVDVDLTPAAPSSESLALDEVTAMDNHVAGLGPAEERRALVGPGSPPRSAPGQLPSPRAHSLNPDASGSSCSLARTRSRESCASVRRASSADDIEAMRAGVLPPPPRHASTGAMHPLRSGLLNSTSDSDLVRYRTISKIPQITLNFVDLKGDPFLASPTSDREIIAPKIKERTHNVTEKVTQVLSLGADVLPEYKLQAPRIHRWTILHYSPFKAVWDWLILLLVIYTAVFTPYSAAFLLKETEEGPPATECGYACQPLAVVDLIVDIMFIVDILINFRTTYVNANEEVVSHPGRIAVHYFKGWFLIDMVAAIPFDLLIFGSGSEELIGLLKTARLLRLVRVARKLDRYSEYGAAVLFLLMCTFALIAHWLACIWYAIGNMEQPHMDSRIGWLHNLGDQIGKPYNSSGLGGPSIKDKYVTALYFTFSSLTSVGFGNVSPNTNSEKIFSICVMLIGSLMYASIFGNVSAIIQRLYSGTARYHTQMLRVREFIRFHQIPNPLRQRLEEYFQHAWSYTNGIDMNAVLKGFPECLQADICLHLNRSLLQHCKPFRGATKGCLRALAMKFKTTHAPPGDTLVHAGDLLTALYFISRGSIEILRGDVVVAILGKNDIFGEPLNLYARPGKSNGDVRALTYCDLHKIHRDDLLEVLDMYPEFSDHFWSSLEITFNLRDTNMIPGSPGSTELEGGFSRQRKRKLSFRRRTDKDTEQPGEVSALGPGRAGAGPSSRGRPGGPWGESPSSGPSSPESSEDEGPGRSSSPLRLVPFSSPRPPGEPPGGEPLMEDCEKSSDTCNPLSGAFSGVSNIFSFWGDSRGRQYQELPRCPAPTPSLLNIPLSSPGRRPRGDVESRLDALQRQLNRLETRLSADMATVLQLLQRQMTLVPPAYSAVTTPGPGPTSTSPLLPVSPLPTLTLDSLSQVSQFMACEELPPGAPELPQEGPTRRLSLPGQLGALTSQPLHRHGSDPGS

Row | SMILES | hERG current change (%, negative = inhibition) at 1uM [%]
1 | O=c1oc2ccccc2n1CCc1ccccc1 | -6.61
2 | FCCCOc1ccc(-c2nccc(-c3ccccn3)n2)cc1 | 10.8
3 | COCCNC(=O)c1cc(Br)ccc1Cl | 2.21
4 | Cc1sc2nc(C(C)Nc3ccccc3N3CCOCC3)[nH]c(=O)c2c1C (stereo not shown) | 18.4
5 | O=C(CCN1C(=O)/C(=C\c2cccc(Br)c2)SC1=S)N1CCOCC1 | 8.21
6 | CCN(CC)S(=O)(=O)c1csc(C(=O)OCC(=O)c2ccccc2)c1 | 6.93
7 | Cc1cccnc1CCNC(=O)c1ccc(OC2CCN(Cc3ccccn3)CC2)cc1 | 2.16
8 | COc1ccc(-c2c(C#N)c(N)nc3c2CCc2ccccc2-3)cc1OC | 4.73
9 | CCOC(=O)c1csc(N)n1.Cl | 7.65
10 | CCc1nc2ccccc2c(NC(=O)CN2CCC(C)CC2)c1C.O=C(O)C(=O)O | -7.26
11 | COc1cc(C(=O)Oc2cc(N)n(S(=O)(=O)c3ccc(F)cc3)n2)cc(OC)c1OC | 14
12 | CN1CCN(c2ccc(NC(=O)c3ccc(-c4ccc(Br)cc4)o3)cc2)CC1 | 9.92
13 | CCOc1ccc(CNC(=O)CCn2c(=O)oc3ccccc32)cc1 | -15.9
14 | O=C(Nc1ccc(S(=O)(=O)Nc2nccs2)cc1)c1cc(-c2ccccc2Cl)nc2ccccc12 | 8.31
15 | CCCCNC(=O)C1CCN(S(=O)(=O)c2cnc[nH]2)CC1 | 9.56
16 | CCOc1[nH]c(/N=C/c2ccco2)c(C#N)c1C#N | 8.12
17 | CCOc1ccccc1NC(=O)CSc1nnnn1-c1ccc(C(=O)OC)cc1 | 2.85
18 | COc1ccc2c(c1)CCN1C2CCN2C(=O)CCC21 (stereo not shown) | 11.1
19 | O=C(NCCC1=CCCCC1)c1cc(-c2ccccn2)nc2ccccc12 | 17
20 | Cc1ccc(N2CC(NS(=O)(=O)c3cccs3)CC2=O)cc1C (stereo not shown) | 14.9
21 | CC(C)c1ccc(NC(=O)C2C3C=CC4(O3)C2C(=O)N(CCCN2CCCCC2)C4C(=O)NC2CCCCC2)cc1 (stereo not shown) | 13.7
22 | Cc1ccc(/C=C/C(=O)NCc2cccs2)o1 | 7.15
23 | COc1ccc(N=C(NN)c2ccc3ccccc3n2)cc1 | 7.45
24 | COc1cccc(C(=O)NC(C)c2cccc3ccccc23)c1OC (stereo not shown) | 7.59
25 | O=C(CN1C(=O)c2cccc3cccc(c23)C1=O)NCCCO | 9.32
